Results are given in words; binding and its absence hold for the method and conditions named. In cells and extracts the contact can be indirect. Some binding calls cover weakened binding; strength is not graded here. Tags and fused reporters may be left off the sequences shown.

Consider 1 molecule from article PMC5814325.

For test [1], the target named is T1, HA-tagged ephrinB1 (wild type) in HeLa cells (UniProt P98172).
T1 sequence: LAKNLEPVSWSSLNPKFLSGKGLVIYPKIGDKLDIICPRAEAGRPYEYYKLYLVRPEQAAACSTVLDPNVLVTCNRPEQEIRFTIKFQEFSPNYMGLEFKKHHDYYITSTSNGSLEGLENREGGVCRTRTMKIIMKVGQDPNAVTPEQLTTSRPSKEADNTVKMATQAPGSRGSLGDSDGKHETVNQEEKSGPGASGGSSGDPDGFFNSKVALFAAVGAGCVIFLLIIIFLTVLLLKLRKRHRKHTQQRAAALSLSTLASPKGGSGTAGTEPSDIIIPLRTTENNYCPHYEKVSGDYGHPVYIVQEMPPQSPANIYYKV
The test is described as follows: co-IP; HeLa cells co-transfected with HA-ephrinB1 and/or V5-RhoGDI1 G173V, treated with 2.5 μg/ml control Fc or EphB2-Fc for 15 min; IP and immunoblot; competition with endogenous RhoGDI1.

In test [2] the target is T1, HA-tagged ephrinB1 (wild type) in HeLa cells. The test is described as follows: co-IP; HeLa cells expressing ephrinB1 constructs (with Flag-RhoGDI1 or with endogenous RhoGDI1), serum-starved, treated with 2.5 μg/ml control Fc or EphB2-Fc for 30 min; IP of ephrinB1 (HA antibody) and immunoblot.
The target of test [3] is T2, HA-tagged ephrinB1 Δ327–334 in HeLa cells (UniProt P98172).
T2 sequence: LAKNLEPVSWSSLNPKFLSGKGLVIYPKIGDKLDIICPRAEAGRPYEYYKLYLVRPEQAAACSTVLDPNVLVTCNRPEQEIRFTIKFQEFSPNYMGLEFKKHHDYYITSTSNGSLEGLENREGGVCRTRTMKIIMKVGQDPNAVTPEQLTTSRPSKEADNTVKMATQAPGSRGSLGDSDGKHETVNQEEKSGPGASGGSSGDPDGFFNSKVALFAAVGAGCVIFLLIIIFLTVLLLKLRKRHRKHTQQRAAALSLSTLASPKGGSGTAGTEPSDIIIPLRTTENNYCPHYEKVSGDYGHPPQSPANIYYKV
Described as above.

B1: endogenous RhoGDI1 (HeLa) (protein, UniProt P52565 1-204)
chain: MAEQEPTAEQLAQIAAENEEDEHSVNYKPPAQKSIQEIQELDKDDESLRKYKEALLGRVAVSADPNVPNVVVTGLTLVCSSAPGPLELDLTGDLESFKKQSFVLKEGVEYRIKISFRVNREIVSGMKYIQHTYRKGVKIDKTDYMVGSYGPRAEEYEFLTPVEEAPKGMLARGSYSIKSRFTDDDKTDHLSWEWNLTIKKDWKD
Turning to B1, the binding result in test [1] was “binds”; in test [2], “binds”; in test [3], “no binding”.
